Results from PMC10632493.
No constants are given. Whether binding was seen depends on the method and setting. In cells and extracts the contact can be indirect. Some binding calls cover weakened binding; strength is not graded here. For some assays here: Tags and fused reporters may be left off the sequences shown.

Amino acid sequences for entries named in this document (tags omitted).
UniProt O95271: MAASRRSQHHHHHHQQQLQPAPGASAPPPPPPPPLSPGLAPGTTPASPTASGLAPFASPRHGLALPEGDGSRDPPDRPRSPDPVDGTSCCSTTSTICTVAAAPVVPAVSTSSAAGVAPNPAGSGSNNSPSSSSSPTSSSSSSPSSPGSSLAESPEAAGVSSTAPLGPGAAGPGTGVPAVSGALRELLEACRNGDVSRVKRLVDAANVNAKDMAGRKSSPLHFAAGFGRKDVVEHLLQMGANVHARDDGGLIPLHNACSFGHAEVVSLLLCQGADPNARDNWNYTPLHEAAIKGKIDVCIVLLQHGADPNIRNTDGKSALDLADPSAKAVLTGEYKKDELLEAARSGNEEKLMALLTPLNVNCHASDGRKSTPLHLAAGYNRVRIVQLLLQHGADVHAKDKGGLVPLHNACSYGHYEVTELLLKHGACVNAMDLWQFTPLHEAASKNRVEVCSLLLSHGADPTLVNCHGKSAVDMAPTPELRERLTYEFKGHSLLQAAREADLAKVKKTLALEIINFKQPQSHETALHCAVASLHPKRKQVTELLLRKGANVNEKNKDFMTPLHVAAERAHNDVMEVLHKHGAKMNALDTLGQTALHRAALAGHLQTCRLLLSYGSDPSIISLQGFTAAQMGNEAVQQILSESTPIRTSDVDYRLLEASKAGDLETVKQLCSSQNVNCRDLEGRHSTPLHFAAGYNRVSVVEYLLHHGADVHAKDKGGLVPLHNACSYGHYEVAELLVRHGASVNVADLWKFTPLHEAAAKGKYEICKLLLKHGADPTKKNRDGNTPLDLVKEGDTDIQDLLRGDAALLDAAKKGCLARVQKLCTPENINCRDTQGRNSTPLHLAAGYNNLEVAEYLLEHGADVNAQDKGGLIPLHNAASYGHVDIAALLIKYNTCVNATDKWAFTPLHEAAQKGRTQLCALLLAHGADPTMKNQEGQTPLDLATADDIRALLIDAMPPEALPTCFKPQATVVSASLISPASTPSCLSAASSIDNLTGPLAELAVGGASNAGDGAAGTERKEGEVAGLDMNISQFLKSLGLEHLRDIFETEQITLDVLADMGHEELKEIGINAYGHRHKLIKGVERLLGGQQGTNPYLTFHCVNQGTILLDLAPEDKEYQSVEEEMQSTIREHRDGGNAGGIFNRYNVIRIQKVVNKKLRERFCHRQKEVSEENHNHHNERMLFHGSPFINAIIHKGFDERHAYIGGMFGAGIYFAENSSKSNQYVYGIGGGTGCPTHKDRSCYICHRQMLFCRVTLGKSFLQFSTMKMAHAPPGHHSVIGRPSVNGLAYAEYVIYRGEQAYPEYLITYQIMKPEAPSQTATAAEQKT

Columns and labels:
Assay in all cases: co-IP; TNKS1/2 DKO HEK293T cells cotransfected with TNKS1 (or MycSAMPARP) and Flag plasmids; TNE lysate; anti-Flag beads 2 h at 4 °C; immunoblot
[1] = biological target: T1, Flag-tagged CHFR (FlagCHFR) (UniProt Q96EP1)
T1 sequence: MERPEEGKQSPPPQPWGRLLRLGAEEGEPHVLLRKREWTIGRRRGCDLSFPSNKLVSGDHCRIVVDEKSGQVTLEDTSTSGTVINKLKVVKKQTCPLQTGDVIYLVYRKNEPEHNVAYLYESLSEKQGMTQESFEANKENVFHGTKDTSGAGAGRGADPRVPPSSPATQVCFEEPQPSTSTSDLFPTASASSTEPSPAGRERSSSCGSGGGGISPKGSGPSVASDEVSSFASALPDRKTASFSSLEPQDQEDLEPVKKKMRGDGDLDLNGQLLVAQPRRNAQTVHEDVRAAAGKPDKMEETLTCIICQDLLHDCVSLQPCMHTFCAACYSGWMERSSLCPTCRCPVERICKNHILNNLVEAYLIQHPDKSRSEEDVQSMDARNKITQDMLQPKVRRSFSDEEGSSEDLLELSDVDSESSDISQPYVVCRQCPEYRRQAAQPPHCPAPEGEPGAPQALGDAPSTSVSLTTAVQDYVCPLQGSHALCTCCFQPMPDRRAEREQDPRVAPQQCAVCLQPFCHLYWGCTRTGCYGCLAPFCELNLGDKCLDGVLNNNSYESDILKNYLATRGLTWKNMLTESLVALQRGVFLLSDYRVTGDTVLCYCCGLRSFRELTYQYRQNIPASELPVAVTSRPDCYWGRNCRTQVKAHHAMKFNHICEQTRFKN

[2] = biological target: FlagRNF166 RING mutant (C33S/C36S; R**) (UniProt Q96A37)
Flag-tagged DTX2 = biological target: T2, Flag-tagged DTX2 (UniProt Q86UW9)
T2 sequence: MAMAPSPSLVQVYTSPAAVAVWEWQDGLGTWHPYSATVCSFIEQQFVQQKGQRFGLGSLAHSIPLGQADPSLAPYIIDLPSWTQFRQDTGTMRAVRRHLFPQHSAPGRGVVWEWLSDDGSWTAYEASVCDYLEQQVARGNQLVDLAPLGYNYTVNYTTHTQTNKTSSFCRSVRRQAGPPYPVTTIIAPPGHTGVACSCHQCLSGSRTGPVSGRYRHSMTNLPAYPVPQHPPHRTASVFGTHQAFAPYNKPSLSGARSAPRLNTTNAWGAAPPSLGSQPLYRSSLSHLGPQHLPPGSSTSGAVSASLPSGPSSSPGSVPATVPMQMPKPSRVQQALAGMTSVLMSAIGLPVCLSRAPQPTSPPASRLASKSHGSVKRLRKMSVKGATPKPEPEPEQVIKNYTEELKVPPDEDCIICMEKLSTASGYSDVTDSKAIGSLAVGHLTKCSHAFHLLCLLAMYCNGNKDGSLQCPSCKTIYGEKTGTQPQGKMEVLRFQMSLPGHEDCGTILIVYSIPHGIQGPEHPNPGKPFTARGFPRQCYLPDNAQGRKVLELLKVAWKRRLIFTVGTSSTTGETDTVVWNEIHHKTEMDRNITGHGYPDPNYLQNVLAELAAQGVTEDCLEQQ

[3] = biological target: FlagRNF166 UIM deletion (UIMΔ; UΔ) (UniProt Q96A37)
[4] = biological target: FlagBAP (bacterial alkaline phosphatase) [phosphatase: P00634]

binding [1]: binds
binding [2]: binds
binding (Flag-tagged DTX2): binds
binding [3]: binds
binding [4]: no binding
Substance: TNKS1 (transfected, TNKS.WT) (from UniProt O95271 1-1327) (enzyme)
